# From the supplement of paper PMC4604168 (melanoma cell lines)
# The list shows a part of the results. Most values come without repeats; read them as rough.
# Assays:
# Test in all cases: cell count relative to DMSO control; melanoma cells; higher = more viable cells
# Conditions in all cases: library dose: standard library concentration; 72 h
# SkMel28 = test system: SkMel28
# SkMel2 = test system: SkMel2
# SkMel30 = test system: SkMel30
# SkMel5 = test system: SkMel5
# UACC257 = test system: UACC257
# UACC62 = test system: UACC62
# WM115 = test system: WM115
# WM1716 = test system: WM1716
# WM3526 = test system: WM3526
# WM1745 = test system: WM1745
# 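Note: cells treated in 1,536-well plates, then fixed and DAPI-stained, with nuclei counted from automated high-throughput microscope images.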
SMILES,cell count (SkMel28) [%],cell count (SkMel2) [%],cell count (SkMel30) [%],cell count (SkMel5) [%],cell count (UACC257) [%],cell count (UACC62) [%],cell count (WM115) [%],cell count (WM1716) [%],cell count (WM3526) [%],cell count (WM1745) [%]
"CC(C)C[C@H](NC(=O)[C@H](Cc1ccccc1)NC(=O)c1cnccn1)B(O)O [Bortezomib] + C/C(O)=C(\C#N)C(=O)Nc1cc(Br)ccc1Br [LFM-A13] (first compound 0.005 µM, partner dose 10 µM)",32.4,53.7,40.2,43.9,89,69.7,30.2,26.9,32.1,–
"Cc1cc(Nc2cc(N3CCN(C)CC3)nc(Sc3ccc(NC(=O)C4CC4)cc3)n2)n[nH]1 [Tozasertib] + Cc1cc(SCc2sc(-c3ccc(C(F)(F)F)c(F)c3)nc2C)ccc1OCC(=O)O [GW0742] (first compound 0.03 µM, partner dose 10 µM)",68.5,–,93.4,60.3,93.2,82.5,63.2,66.7,91.8,–
"Clc1ccc(Nc2nnc(Cc3ccncc3)c3ccccc23)cc1 [vatalanib] + Cc1cc(SCc2sc(-c3ccc(C(F)(F)F)c(F)c3)nc2C)ccc1OCC(=O)O [GW0742] (first compound 10 µM, partner dose 10 µM)",77.2,79.6,95.4,70.3,80.7,79.3,89.6,90.4,71,–
"Oc1nc(-c2ccc(C(F)(F)F)cc2)nc2c1CSCC2 + O=C(Oc1ccc([N+](=O)[O-])cc1)N1CCC(C(O)(c2ccc3c(c2)OCO3)c2ccc3c(c2)OCO3)CC1 [JZL184] (first compound 10 µM, partner dose 5 µM)",121,97.6,83.2,70,91.6,84.1,92.7,84.2,101,76.4
"Cc1cc(Nc2cc(N3CCN(C)CC3)nc(Sc3ccc(NC(=O)C4CC4)cc3)n2)n[nH]1 [Tozasertib] + C[As](C)SC[C@H](NC(=O)CC[C@H](N)C(=O)O)C(=O)NCC(=O)O [Darinaparsin] (first compound 0.03 µM, partner dose 2 µM)",73.7,92.9,91.4,61.7,81.7,55.9,77.6,56.2,81.5,60.9
"CN1CCN(c2ccc3nc(-c4c(N)c5c(F)cccc5[nH]c4=O)[nH]c3c2)CC1 [Dovitinib] + O=C(Oc1ccc([N+](=O)[O-])cc1)N1CCC(C(O)(c2ccc3c(c2)OCO3)c2ccc3c(c2)OCO3)CC1 [JZL184] (first compound 0.5 µM, partner dose 5 µM)",54.3,57.2,54.4,67,72.9,72.1,60.2,77.5,55.8,–
"Nc1ccn([C@@H]2O[C@H](CO)[C@@H](O)C2(F)F)c(=O)n1 [gemcitabine] + O=C(Oc1ccc([N+](=O)[O-])cc1)N1CCC(C(O)(c2ccc3c(c2)OCO3)c2ccc3c(c2)OCO3)CC1 [JZL184] (first compound 0.002 µM, partner dose 5 µM)",124,113,105,88.8,99.9,60.4,83.7,70.3,84.4,–
"O=C1NC(=O)/C(=C/c2ccc(-c3ccc(F)cc3O)o2)S1 + O=C(Oc1ccc([N+](=O)[O-])cc1)N1CCC(C(O)(c2ccc3c(c2)OCO3)c2ccc3c(c2)OCO3)CC1 [JZL184] (first compound 5 µM, partner dose 5 µM)",145,101,95.8,105,89.1,105,114,96.2,86.9,124
"CN1CCN(c2ccc3nc(-c4c(N)c5c(F)cccc5[nH]c4=O)[nH]c3c2)CC1 [Dovitinib] + C/C(O)=C(\C#N)C(=O)Nc1cc(Br)ccc1Br [LFM-A13] (first compound 0.5 µM, partner dose 10 µM)",36.4,52.9,85.1,73,74,59.7,67.3,73,71.7,–
"Nc1ccn([C@@H]2O[C@H](CO)[C@@H](O)C2(F)F)c(=O)n1 [gemcitabine] + Cc1cc(SCc2sc(-c3ccc(C(F)(F)F)c(F)c3)nc2C)ccc1OCC(=O)O [GW0742] (first compound 0.002 µM, partner dose 10 µM)",73.6,–,99,73.7,104,88.3,83.3,66.3,86.5,–
"CO[C@H]1C[C@@H]2CC[C@@H](C)[C@@](O)(O2)C(=O)C(=O)N2CCCC[C@H]2C(=O)O[C@H]([C@H](C)C[C@@H]2CC[C@@H](OCCO)[C@H](OC)C2)CC(=O)[C@H](C)/C=C(\C)[C@@H](O)[C@@H](OC)C(=O)[C@H](C)C[C@H](C)/C=C/C=C/C=C/1C [everolimus] + O=C(Oc1ccc([N+](=O)[O-])cc1)N1CCC(C(O)(c2ccc3c(c2)OCO3)c2ccc3c(c2)OCO3)CC1 [JZL184] (first compound 0.1 µM, partner dose 5 µM)",37.7,67.9,63.9,53,88.5,76.7,66,71.9,65.8,–
"C[C@@H]1CCN(C(=O)CC#N)C[C@@H]1N(C)c1ncnc2[nH]ccc12 + O=C(Oc1ccc([N+](=O)[O-])cc1)N1CCC(C(O)(c2ccc3c(c2)OCO3)c2ccc3c(c2)OCO3)CC1 [JZL184] (first compound 5 µM, partner dose 5 µM)",104,–,107,132,103,81.3,89.1,88.3,99.5,87.2
"O=C(O)c1ccc2c(c1)nc(Nc1cccc(Cl)c1)c1ccncc12 + C/C(O)=C(\C#N)C(=O)Nc1cc(Br)ccc1Br [LFM-A13] (first compound 2 µM, partner dose 10 µM)",43.5,–,59.2,59.5,88.1,77.6,73.9,84.7,68.5,–
"Clc1ccc(Nc2nnc(Cc3ccncc3)c3ccccc23)cc1 [vatalanib] + O=C(Oc1ccc([N+](=O)[O-])cc1)N1CCC(C(O)(c2ccc3c(c2)OCO3)c2ccc3c(c2)OCO3)CC1 [JZL184] (first compound 10 µM, partner dose 5 µM)",91.1,83.1,112,96.8,56,120,93.1,89.6,81.1,–
"COc1ccc(COc2ccc(Cc3cnc(N)nc3N)cc2OC)cc1 + O=C(Oc1ccc([N+](=O)[O-])cc1)N1CCC(C(O)(c2ccc3c(c2)OCO3)c2ccc3c(c2)OCO3)CC1 [JZL184] (first compound 5 µM, partner dose 5 µM)",91.4,–,90,95.8,79.7,108,85.8,84,81.9,86.6
"C#Cc1cccc(Nc2ncnc3cc(OCCOC)c(OCCOC)cc23)c1 [erlotinib] + Cc1cc(SCc2sc(-c3ccc(C(F)(F)F)c(F)c3)nc2C)ccc1OCC(=O)O [GW0742] (first compound 4 µM, partner dose 10 µM)",68.7,–,94.1,65.9,105,75.9,94.6,75.6,72.9,59.9
"O=C(O)c1ccc2c(c1)nc(Nc1cccc(Cl)c1)c1ccncc12 + O=C(Oc1ccc([N+](=O)[O-])cc1)N1CCC(C(O)(c2ccc3c(c2)OCO3)c2ccc3c(c2)OCO3)CC1 [JZL184] (first compound 2 µM, partner dose 5 µM)",125,88.2,86.5,89.1,76.8,81.1,82,78.3,85.5,–
"COCC[n+]1c2c(n(Cc3cnccn3)c1C)C(=O)c1ccccc1C2=O + C/C(O)=C(\C#N)C(=O)Nc1cc(Br)ccc1Br [LFM-A13] (first compound 0.002 µM, partner dose 10 µM)",54.1,58,67.6,75.4,19.4,88.1,72.7,75.1,60.2,89.7
"Cc1cc(Nc2cc(N3CCN(C)CC3)nc(Sc3ccc(NC(=O)C4CC4)cc3)n2)n[nH]1 [Tozasertib] + C/C(O)=C(\C#N)C(=O)Nc1cc(Br)ccc1Br [LFM-A13] (first compound 0.03 µM, partner dose 10 µM)",71.7,101,108,60.7,88.5,69,80.5,78.5,79.6,–
"Clc1ccc(Nc2nnc(Cc3ccncc3)c3ccccc23)cc1 [vatalanib] + C/C(O)=C(\C#N)C(=O)Nc1cc(Br)ccc1Br [LFM-A13] (first compound 10 µM, partner dose 10 µM)",78.7,83.3,91.4,55.9,78.8,86.8,65.8,84.1,73.5,–
"O=C(CCCCCCC(=O)Nc1ccccc1)NO [vorinostat] + O=C(Oc1ccc([N+](=O)[O-])cc1)N1CCC(C(O)(c2ccc3c(c2)OCO3)c2ccc3c(c2)OCO3)CC1 [JZL184] (first compound 0.4 µM, partner dose 5 µM)",52.3,–,83.8,76.9,76.7,55.1,74.1,70.9,65.1,80.7
